# Hit rate of the full screen: of about 50,000 compounds, about 800 (1.6%) showed an effect of 50% or more. Some of the results follow.
# Target: Bcl-2-like protein 10 (Homo sapiens) (UniProt Q9HD36)
# Assay: Phenotype converters, Bcl-B/TR3 peptide binding displacement, primary biochemical FP (AID 1240);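 note: 0% = Bcl-B with tracer peptide and DMSO and 100% = tracer peptide lacking Bcl-B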
# Conditions: GST-Bcl-B / FITC-TR3 peptide fluorescence polarization; stronger effect = higher value; compound at 3.75 mg/L
# Chain of UniProt Q9HD36 (Q9HD36 whole entry, looked up): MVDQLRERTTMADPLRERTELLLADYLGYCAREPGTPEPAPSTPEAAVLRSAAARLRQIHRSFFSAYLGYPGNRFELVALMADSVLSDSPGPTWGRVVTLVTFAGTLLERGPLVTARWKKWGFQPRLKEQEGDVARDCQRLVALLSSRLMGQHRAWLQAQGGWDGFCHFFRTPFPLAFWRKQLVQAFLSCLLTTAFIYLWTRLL
row,Compound,displacement [%]
1,Cc1[nH]nc(-c2ccccc2)c1Sc1ccccc1,-68.1
2,COC(=O)c1ccc(-n2ncnc2-c2ccc(Br)cc2)cc1,-5.4
3,COc1ccc(NC(=O)c2ccc([N+](=O)[O-])cc2)cc1Cl,4.7
4,O=C1N=C(N2CCCC2)S/C1=C\c1ccccc1,-5.7
5,O=C(Cc1ccccc1)NC(NC(=O)Cc1ccccc1)c1ccc(Br)cc1,3.7
6,O=[N+]([O-])c1ccc(N2CCOCC2)cc1N1CCCC1,-4.6
7,COc1ccc(N2C(=O)NC(=O)/C(=C/c3ccc(OCc4ccccc4F)cc3)C2=O)cc1,63.1
8,Cc1cc(-c2cc(-c3ccc(Cl)cc3)nc(N)c2C#N)co1,19
9,CC(=O)c1ccc(N2CCN(S(=O)(=O)c3ccccc3)CC2)c(F)c1,0.7
10,O=C(/C=C/c1ccc(F)cc1)Nc1ccc(F)c([N+](=O)[O-])c1,-3
11,CC(Oc1ccc(Cl)cc1Cl)C(=O)Nc1c(Cl)cccc1Cl (centres undefined),3.8
12,COc1cccc(N2C(=O)CC(N3CCN(CCN=CC4=C(O)CC(C)(C)CC4=O)CC3)C2=O)c1 (centres undefined),-7.7
13,COc1ccc(C2N(c3ccccc3)CCN2c2ccccc2)cc1O,-1.8
14,O=C(CN(c1cccc([N+](=O)[O-])c1)S(=O)(=O)c1ccccc1)NCCSc1ccccc1,2
15,COc1ccc(N(CC(=O)Nc2ccc(OC)cc2OC)S(=O)(=O)c2ccccc2)cc1,1.9
16,COc1ccccc1N=C(NOCc1ccc(Cl)cc1Cl)c1nonc1N,-7.3
17,Cc1ccc(-c2nnc(Nc3ccc4c(c3)nc(C)n4C)c3ccccc23)cc1,2.4
18,CCCC(=O)Nc1ccc(-c2cc3ccccc3oc2=O)c(C)c1,-4.7
19,CC(=O)c1cccc(Nc2nc(-c3ccc(Br)cc3)cs2)c1,8.2
20,O=C(Nc1ccc(I)cc1)c1ccc(I)cc1,-4.7
21,COc1ccc(N(CC(=O)Nc2ccc(C(C)C)cc2)S(=O)(=O)c2ccccc2)cc1Cl,13.6
22,O=C(NC(=S)Nc1ccc(Cl)c(-c2nc3ccccc3o2)c1)c1ccccc1Cl,6.1
23,C/C(=N\N1CCN(Cc2cccc3ccccc23)CC1)c1ccccc1O,-12.3

row,Compound,displacement [%]
1,Cc1ccc(/C=C/C(=O)NC(=S)Nc2ccc(S(N)(=O)=O)cc2)cc1,8.5
2,CCOc1ccccc1NC(=O)c1cccc(C)c1,-11.3
3,O=C(Nc1ccc(OCC(=O)N2CCOCC2)cc1)c1ccccc1F,-6
4,CN1C(=O)/C(=C/c2ccc(O)c(O)c2)SC1=S,14
5,COc1ccc(C(=O)Nc2cc(C(F)(F)F)cc(C(F)(F)F)c2)cc1OC,-5.6
6,O=C(NN1C(=O)c2ccccc2C1=O)c1cccs1,2.1
7,Cc1onc(-c2c(Cl)cccc2Cl)c1C(=O)Nc1cc(C(N)=O)cc(C(N)=O)c1,-1.6
8,O=C1CC(N2CCN(c3ccc(Cl)cc3)CC2)C(=O)N1c1ccc(Cl)c(Cl)c1 (centres undefined),1.3
9,Cc1nc2cc(-c3cccc(F)c3)[nH]n2c(=O)c1Cl,11.8
10,CCc1nnc(NC(=O)Nc2ccc(Cl)cc2)s1,12.7
11,Cc1ccc(Cl)cc1NC(=O)c1cccc(N(C)C)c1,13.8
12,COc1ccc(C(=O)N/N=C(/C)c2ccc3c4c(cccc24)CC3)cc1,-11.3
13,COc1ccc(C)cc1NC(=O)c1cc(C(F)(F)F)cc(C(F)(F)F)c1,7.7
14,Cc1cc(C)c(NC(=O)COc2cccc(Br)c2)c(C)c1,-5.8
15,CCN1C(=O)/C(=C\c2cccc([N+](=O)[O-])c2)C(C(=O)OC)=C1C,-3.4
16,O=C(N=Nc1c(O)n(CN2CCCCCC2)c2ccccc12)c1cccnc1,23.4
17,FC(F)(F)Oc1ccc(N=Cc2c[nH]c3ccccc23)cc1,5.5
18,O=CNc1nonc1NNc1ccccc1,9.5
19,COc1cccc(/C=C(\C#N)c2nc3ccc(C)cc3[nH]2)c1O,10.4
20,C=CCNc1ncnc2ccc(Br)cc12,8.2
21,CC(O)c1ccc(NC(=O)c2cnn3c2NC(c2cccs2)CC3C(F)(F)F)cc1 (centres undefined),6.5
22,COc1cc(OC)c(OC)cc1CN1CCN(C2CCCCC2)CC1,4.9
23,COc1ccc(/C=C2\C(=O)NC(=O)N(c3cccc(C)c3)C2=O)c(C)c1,-8.9

row,Compound,displacement [%]
1,CCOC(=O)c1c(NC(=O)c2ccc(C)o2)sc2c1CCC(C)C2 (centres undefined),7.9
2,Cc1ccc(S(=O)(=O)Oc2cccc(/C=c3/sc4nc5ccccc5n4c3=O)c2)cc1,-0.5
3,CCOP(=O)(OCC)/C(=N/OC(=O)c1ccccc1C)C(N)=O,-2.7
4,COc1ccccc1NCC(O)Cn1c2ccc(Cl)cc2c2cc(Cl)ccc21 (centres undefined),-3.3
5,COc1ccccc1C(=O)N/N=C(\C)c1cccnc1,-5.4
6,Cc1cccc(C)c1OCCCCN1CCOCC1,0
7,Cc1nccn1S(=O)(=O)c1ccc(Cl)cc1Br,5
8,CCOC(=O)c1c(NC(=O)C2C3C=CC(C3)C2C(=O)O)sc2c1CCC(C(C)(C)C)C2 (centres undefined),0.4
9,CCOc1ccc(C(=O)Nc2ccc(Cc3ccncc3)cc2)cc1Br,-56.1
10,Cc1ccc(N2C(=O)C3ON(c4ccccc4)C(c4ccc(F)cc4)C3C2=O)cc1 (centres undefined),7.9
11,O=C(Nc1ccc(-c2nc3ccccc3o2)cc1)c1ccc2c(c1)OCCO2,3.4
12,Oc1ccc2ccccc2c1/C=N/N1CCN(c2ccccn2)CC1,-4
13,Cc1cc(OCC(=O)Nc2cc([N+](=O)[O-])ccc2Cl)ccc1Br,4.6
14,O=C1CC(N2CCN(c3ccc([N+](=O)[O-])cc3)CC2)C(=O)N1CCc1ccccc1 (centres undefined),4.5
15,COc1ccc(/C=C2\C=C(c3ccc(C)cc3)OC2=O)cc1C,10.4
16,COc1ccc(CN=C(Nc2ccccc2)SC2CC(=O)N(c3cccc(Cl)c3)C2=O)cc1 (centres undefined),-4.6
17,COc1ccc(/C=C2/SC(=S)N(Cc3ccccc3)C2=O)c(OC)c1,-4
18,O=C(Sc1nnc(-c2cccc(Br)c2)o1)c1ccc([N+](=O)[O-])cc1,12.1
19,O=S(=O)(Nc1ccc(Nc2ccc(F)cc2)cc1)c1ccc(F)cc1,12.4
20,COc1ccc2c(c1)c(/C=C/c1nc3ccccc3c(=O)n1-c1ccccc1[N+](=O)[O-])c(C)n2C,-5.3
21,CC(C)NC(=O)C(=O)NCc1ccc2c(c1)OCO2,0.4
22,COc1ccc(C(=O)CN2C3=NCCCN3c3ccccc32)cc1OC,-8.1
23,Cc1ccc(O)c(C2=NOC(O)(C(F)(F)F)C2)c1 (centres undefined),-5.2
